# Data taken from PubChem BioAssay (NCATS).
# Inconclusive means that the source gave no clear call. Such entries were picked first, then a sample of the others. For part of these data: Potencies of inconclusive entries are left out as doubtful fits. For part of these data: A note “side channel” means that the fit belongs to a control or component signal, not to the main read-out. Activity calls are given as the source filed them. Unless noted, calls follow the shape of the full dose curve.
# What was measured:
# [1] = target: Estrogen receptor (Homo sapiens) (UniProt P03372); experiment: qHTS assay for small molecule antagonists of estrogen receptor alpha signaling (AID 588513; active = well fitted curve in the direction sought with a large enough effect in the signal ratio, with a control signal flat, not every such curve was filed as active; inconclusive = small, poorly fitted or top-dose-only effect, or effect the other way, or a change in a side signal; inactive = no such curve, though single readings can be large or run the other way; the % refers to the signal ratio; also: % is scaled to controls: 0 for no effect and ±100 for the full control effect); conditions: ER-alpha-UAS-bla HEK293, beta-lactamase ratio, antagonist mode; activity, negative = inhibition: at 76.9 µM (top of the series) unless noted
# Chain of UniProt P03372 (P03372 whole entry, looked up): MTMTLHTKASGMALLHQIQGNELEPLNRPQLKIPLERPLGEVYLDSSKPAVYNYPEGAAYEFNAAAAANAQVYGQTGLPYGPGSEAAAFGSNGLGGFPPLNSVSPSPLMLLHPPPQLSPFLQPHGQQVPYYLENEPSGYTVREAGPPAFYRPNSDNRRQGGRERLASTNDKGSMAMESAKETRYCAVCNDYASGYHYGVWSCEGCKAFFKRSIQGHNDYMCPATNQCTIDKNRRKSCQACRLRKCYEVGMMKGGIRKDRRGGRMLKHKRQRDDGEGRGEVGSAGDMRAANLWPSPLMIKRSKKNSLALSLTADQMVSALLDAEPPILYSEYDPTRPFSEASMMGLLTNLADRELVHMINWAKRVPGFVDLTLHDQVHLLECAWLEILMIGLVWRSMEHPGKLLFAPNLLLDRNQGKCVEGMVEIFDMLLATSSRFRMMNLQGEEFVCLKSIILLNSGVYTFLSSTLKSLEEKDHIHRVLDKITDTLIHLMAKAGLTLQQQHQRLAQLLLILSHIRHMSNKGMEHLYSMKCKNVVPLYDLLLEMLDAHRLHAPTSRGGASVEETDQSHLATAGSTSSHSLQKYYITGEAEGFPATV
# Outline: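 Fluorescence from CCF4 substrate after 2 h at room temperature gave reporter activity; cells had been exposed to compound and 0.5nM 17-beta-estradiol for 18 h at 37 C. Hill-equation fitting yielded IC50 and maximal response.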
# [2] = target: Androgen receptor (Homo sapiens) (UniProt P10275); experiment: qHTS assay for small molecule agonists of androgen receptor signaling (AID 588515; active = well fitted curve in the direction sought with a large enough effect in the signal ratio, with a control signal flat; inconclusive = small, poorly fitted or top-dose-only effect, or effect the other way, or a change in a side signal; inactive = no such curve, though single readings can be large or run the other way; the % refers to the signal ratio; also: % is scaled to controls: 0 for no effect and ±100 for the full control effect); conditions: AR-UAS-bla HEK293, beta-lactamase ratio, agonist 16 h; activation: hits give high values
# Chain of UniProt P10275 (P10275 whole entry, looked up): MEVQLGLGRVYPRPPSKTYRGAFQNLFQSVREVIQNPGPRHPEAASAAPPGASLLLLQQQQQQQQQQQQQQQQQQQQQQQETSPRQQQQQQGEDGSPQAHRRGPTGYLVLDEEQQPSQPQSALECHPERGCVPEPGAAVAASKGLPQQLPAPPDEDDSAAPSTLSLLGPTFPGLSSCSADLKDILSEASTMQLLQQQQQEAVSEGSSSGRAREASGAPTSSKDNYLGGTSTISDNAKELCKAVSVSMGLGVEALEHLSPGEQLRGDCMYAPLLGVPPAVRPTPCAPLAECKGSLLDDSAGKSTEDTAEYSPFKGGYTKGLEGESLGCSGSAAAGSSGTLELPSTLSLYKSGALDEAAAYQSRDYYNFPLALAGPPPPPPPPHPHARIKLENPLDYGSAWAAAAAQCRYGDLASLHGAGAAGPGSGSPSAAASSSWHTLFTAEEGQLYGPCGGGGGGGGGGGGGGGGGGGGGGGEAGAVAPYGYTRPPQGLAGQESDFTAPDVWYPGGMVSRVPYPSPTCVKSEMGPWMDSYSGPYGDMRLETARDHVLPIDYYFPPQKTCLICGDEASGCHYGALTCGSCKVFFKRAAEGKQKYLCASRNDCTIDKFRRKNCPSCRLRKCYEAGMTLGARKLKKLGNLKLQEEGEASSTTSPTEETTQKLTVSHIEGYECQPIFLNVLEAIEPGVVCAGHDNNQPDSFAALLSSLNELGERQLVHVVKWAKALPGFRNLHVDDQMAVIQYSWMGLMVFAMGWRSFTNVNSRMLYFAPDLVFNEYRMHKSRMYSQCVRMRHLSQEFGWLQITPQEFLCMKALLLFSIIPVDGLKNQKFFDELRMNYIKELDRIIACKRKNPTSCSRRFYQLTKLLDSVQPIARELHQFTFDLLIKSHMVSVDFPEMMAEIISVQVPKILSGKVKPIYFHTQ
# Outline: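 Stimulation of an AR-responsive β-lactamase reporter in GripTite HEK293 cells was measured after 16 h compound exposure at 37 °C, via CCF4 fluorescence after 2 h RT. EC50 from Hill fits, normalized to R1881 at 30 nM.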
# [3] = target: Bile acid receptor (Homo sapiens) (UniProt Q96RI1); experiment: qHTS assay for small molecule agonists of farnesoid X receptor signaling (AID 588527); conditions: HEK293T FXR-UAS-bla, beta-lactamase ratio, 16 h; activation: hits give high values; also: potency is read from the fitted curve at half-maximal effect;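 as to activation: 0% = vehicle basal and 100% = reference agonist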
# Outline: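 FXR-UAS-bla HEK293T cells (10% dialyzed FBS) preincubated 5-7 h at 37 C, then compounds at up to 92 uM for 16 h at 37 C. CCF4 beta-lactamase read-out after 2 h RT. Normalized to chenodeoxycholic acid (100 uM) and DMSO; Hill fit gave EC50 and efficacy.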
# [4] = target: Peroxisome proliferator-activated receptor gamma (Homo sapiens) (UniProt P37231); experiment: qHTS assay for small molecule antagonists of peroxisome proliferator-activated receptor gamma signaling (AID 588537; active = well fitted inhibition curve with a large enough effect in the signal ratio, with a control signal flat, not every such curve was filed as active; inconclusive = small, poorly fitted or top-dose-only effect, or effect the other way, or a change in a side signal; the % refers to the signal ratio; also: potency is read from the fitted curve at half-maximal effect;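 also: reporter cells co-stimulated with 50 nM rosiglitazone agonist during compound treatment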; as to activity, negative = inhibition: % of control where 0% means no effect); conditions: HEK293 PPARg-UAS-bla, beta-lactamase ratio, antagonist mode; activity, negative = inhibition: at 76.8 µM (top of the series)
# Outline: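 Fluorescence at 460 and 530 nm (405 nm excitation) reported beta-lactamase cleavage of CCF4 after 2 h room-temperature loading. HEK293 reporter cells in 1% charcoal/dextran-treated FBS had received compound and rosiglitazone for 16 h.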
# [5] = target: Retinoic acid receptor RXR-alpha (Homo sapiens) (UniProt P19793); experiment: qHTS assay for small molecule agonists of retinoid X receptor alpha signaling (AID 588544); conditions: HEK293T RXRa-UAS-bla, beta-lactamase reporter, 18 h; activation: at 76.7 µM (top of the series) unless noted; also: potency is read from the fitted curve at half-maximal effect;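 as to activation: 0% = DMSO basal wells and 100% = reference agonist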
# Chain of UniProt P19793 (P19793 whole entry, looked up): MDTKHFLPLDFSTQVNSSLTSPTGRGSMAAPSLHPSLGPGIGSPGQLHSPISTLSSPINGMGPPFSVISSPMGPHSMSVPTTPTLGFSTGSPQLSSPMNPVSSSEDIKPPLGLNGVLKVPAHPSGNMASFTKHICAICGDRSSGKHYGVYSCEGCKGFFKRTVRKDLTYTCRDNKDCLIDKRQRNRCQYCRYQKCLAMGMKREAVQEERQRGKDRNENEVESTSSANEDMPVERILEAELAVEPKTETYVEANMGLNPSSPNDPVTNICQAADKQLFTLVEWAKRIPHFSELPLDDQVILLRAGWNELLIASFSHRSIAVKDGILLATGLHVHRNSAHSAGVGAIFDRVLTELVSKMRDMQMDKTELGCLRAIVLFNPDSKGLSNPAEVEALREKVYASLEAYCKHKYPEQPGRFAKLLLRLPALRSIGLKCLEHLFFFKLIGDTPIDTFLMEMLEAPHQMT
# [6] = target: Androgen receptor (Homo sapiens) (UniProt P10275); experiment: qHTS assay for small molecule antagonists of androgen receptor signaling (AID 588516; active = well fitted curve in the direction sought with a large enough effect in the signal ratio, with a control signal flat, not every such curve was filed as active; inconclusive = small, poorly fitted or top-dose-only effect, or effect the other way, or a change in a side signal; inactive = no such curve, though single readings can be large or run the other way; the % refers to the signal ratio; also: % is scaled to controls: 0 for no effect and ±100 for the full control effect); conditions: AR-UAS-bla HEK293, beta-lactamase ratio, antagonist mode, 16 h; activity change, negative = inhibition: at 76.8 µM (top of the series)
# Outline: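 Antagonist mode: inhibition of R1881-stimulated (10 nM final) bla reporter in GeneBLAzer AR HEK 293 cells, 16 h at 37C, compounds titrated. IC50 and efficacy from Hill-equation fits of 405/460–530 nm FRET ratios.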
# [7] = target: Glucocorticoid receptor (Homo sapiens) (UniProt P04150); experiment: qHTS assay for small molecule antagonists of glucocorticoid receptor signaling (AID 588533; active = well fitted inhibition curve with a large enough effect in the signal ratio, with a control signal flat, not every such curve was filed as active; inconclusive = small, poorly fitted or top-dose-only effect, or effect the other way, or a change in a side signal; the % refers to the signal ratio;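 also: cells stimulated with 2 nM dexamethasone as agonist; % is scaled to controls: 0 for no effect and ±100 for the full control effect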); conditions: HeLa MMTV-bla, GRE beta-lactamase ratio, antagonist mode, 18 h; activity change, negative = inhibition: at 76.8 µM (top of the series) unless noted
# [8] = target: Peroxisome proliferator-activated receptor delta (Homo sapiens) (UniProt Q03181); experiment: qHTS assay for small molecule agonists of peroxisome proliferator-activated receptor delta signaling (AID 588534); conditions: HEK293T PPARdelta-UAS-bla, beta-lactamase ratio, 18 h; activation: at 76.7 µM (top of the series); also: potency is read from the fitted curve at half-maximal effect;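 as to activation: 0% = DMSO basal wells and 100% = positive control agonist at 10 µM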
# Chain of UniProt Q03181 (Q03181 whole entry, looked up): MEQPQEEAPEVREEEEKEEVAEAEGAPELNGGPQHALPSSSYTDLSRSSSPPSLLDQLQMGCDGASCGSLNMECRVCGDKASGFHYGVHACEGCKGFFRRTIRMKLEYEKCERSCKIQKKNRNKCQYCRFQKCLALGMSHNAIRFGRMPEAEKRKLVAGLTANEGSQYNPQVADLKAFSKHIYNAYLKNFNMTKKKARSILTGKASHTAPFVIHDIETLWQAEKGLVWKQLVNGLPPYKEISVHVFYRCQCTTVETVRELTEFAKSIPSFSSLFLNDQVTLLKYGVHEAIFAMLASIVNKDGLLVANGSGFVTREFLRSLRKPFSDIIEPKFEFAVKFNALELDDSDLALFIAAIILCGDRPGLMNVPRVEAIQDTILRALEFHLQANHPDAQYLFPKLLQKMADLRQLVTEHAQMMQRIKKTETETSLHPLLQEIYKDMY
# Outline: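 Agonist-mode qHTS; reporter cells, 5 hrs 37 C pre-incubation; compound titration, 18 hrs 37 C; CCF4 dye, 2 hrs RT; fluorescence read. EC50/efficacy via Hill fit.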
# [9] = target: Peroxisome proliferator-activated receptor delta (Homo sapiens) (UniProt Q03181); experiment: qHTS assay for small molecule antagonists of peroxisome proliferator-activated receptor delta signaling (AID 588535; active = well fitted inhibition curve with a large enough effect in the signal ratio, with a control signal flat, not every such curve was filed as active; inconclusive = small, poorly fitted or top-dose-only effect, or effect the other way, or a change in a side signal; inactive = no such curve, though single readings can be large or run the other way; the % refers to the signal ratio); conditions: HEK293T PPARd-UAS-bla, beta-lactamase FRET ratio, 18 h; activity change, negative = inhibition: at 76.7 µM (top of the series) unless noted
# Outline: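 Fluorescence from CCF4-loaded GeneBLAzer PPAR-delta-UAS-bla HEK293T cells (2 hrs RT loading) quantified reporter inhibition after an 18 hr, 37 C compound exposure across a titration.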
# [10] = target: Peroxisome proliferator-activated receptor gamma (Homo sapiens) (UniProt P37231); experiment: qHTS assay for small molecule agonists of peroxisome proliferator-activated receptor gamma signaling (AID 588536; active = well fitted curve in the direction sought with a large enough effect in the signal ratio, with a control signal flat, not every such curve was filed as active; inconclusive = small, poorly fitted or top-dose-only effect, or effect the other way, or a change in a side signal; inactive = no such curve, though single readings can be large or run the other way; the % refers to the signal ratio;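 also: 0% = DMSO basal wells and 100% = rosiglitazone at 2 µM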); conditions: HEK293 PPARg-UAS-bla, beta-lactamase ratio, 16 h; activation: at 76.7 µM (top of the series), percent of rosiglitazone response, DMSO as zero unless noted
# Outline: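 Cells were plated and held 6–6.5 h at 37 C, then compounds were added as a titration series. After a further 16 h, CCF4 dye was loaded for 2 h at room temperature and emission at 460/530 nm recorded.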
# [11] = target: Vitamin D3 receptor (Homo sapiens) (UniProt P11473); experiment: qHTS assay for small molecule antagonists of vitamin D receptor signaling (AID 588541); conditions: HEK293T VDR-UAS-bla, beta-lactamase ratio, antagonist mode; activity change, negative = inhibition: at 76.7 µM (top of the series)
# [12] = target: Thyroid hormone receptor beta (Homo sapiens) (UniProt P10828); experiment: qHTS assay for small molecule antagonists of thyroid hormone receptor beta signaling (AID 588547; active = well fitted inhibition curve with a large enough effect in the signal ratio, with a control signal flat, not every such curve was filed as active; inconclusive = small, poorly fitted or top-dose-only effect, or effect the other way, or a change in a side signal; the % refers to the signal ratio; also: potency is read from the fitted curve at half-maximal effect); conditions: TR-UAS-bla HEK293, beta-lactamase ratio, antagonist mode, 18 h
# Chain of UniProt P10828 (P10828 whole entry, looked up): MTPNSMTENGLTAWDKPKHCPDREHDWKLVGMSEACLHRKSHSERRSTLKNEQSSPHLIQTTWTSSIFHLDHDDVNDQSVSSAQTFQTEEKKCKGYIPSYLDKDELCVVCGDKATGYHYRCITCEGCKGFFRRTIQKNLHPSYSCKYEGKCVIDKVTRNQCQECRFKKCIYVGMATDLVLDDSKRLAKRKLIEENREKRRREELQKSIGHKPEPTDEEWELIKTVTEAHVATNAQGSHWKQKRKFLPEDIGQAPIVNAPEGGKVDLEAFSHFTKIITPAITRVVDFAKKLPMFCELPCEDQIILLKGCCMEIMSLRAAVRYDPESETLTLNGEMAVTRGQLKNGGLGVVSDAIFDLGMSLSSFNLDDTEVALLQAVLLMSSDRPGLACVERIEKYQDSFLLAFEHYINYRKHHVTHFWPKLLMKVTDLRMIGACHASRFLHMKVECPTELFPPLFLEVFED
# Outline: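 TR-UAS-bla GripTite HEK293 cells in 2% charcoal/dextran FBS medium; compounds 0.59 nM to 92 uM with T3 at 0.4nM final, 18 h at 37 C. Beta-lactamase read by CCF4 fluorescence (460/530 nm); Hill fits gave IC50 and efficacy.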
# [13] = qHTS assay for small molecule agonists of the antioxidant response element (ARE) signaling pathway (AID 651741; active = well fitted activation curve with a large enough effect in the signal ratio; inconclusive = small, poorly fitted or top-dose-only effect, or effect the other way, or a change in a side signal; the % refers to the signal ratio; also: potency is read from the fitted curve at half-maximal effect; as to activation: % of control where 0% means no effect); conditions: HepG2 ARE-bla reporter, beta-lactamase FRET ratio, 16 h; activation: at 96 µM (top of the series) unless noted
# Outline: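 Stably integrated ARE-beta-lactamase reporter HepG2 cells; 16 h compound incubation, 37 C; LiveBLAzer FRET substrate 2 h at room temperature; fluorescence intensity.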
# [14] = target: Retinoic acid receptor RXR-alpha (Homo sapiens) (UniProt P19793); experiment: qHTS assay for small molecule antagonists of retinoid X receptor alpha signaling (AID 588546; active = well fitted inhibition curve with a large enough effect in the signal ratio, with a control signal flat, not every such curve was filed as active; inconclusive = small, poorly fitted or top-dose-only effect, or effect the other way, or a change in a side signal; inactive = no such curve, though single readings can be large or run the other way; the % refers to the signal ratio); conditions: HEK293T RXRa-UAS-bla, beta-lactamase ratio, antagonist mode
# Outline: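 Beta-lactamase reporter inhibition, read as CCF4 fluorescence ratio (ex 405, em 460/530 nm) after 2 h at RT. HEK293T UAS-bla cells, 2500/well, were stimulated with 9-cis-RA at 500 or 100 nM final alongside test compound for 18 h at 37 C.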
# [15] = qHTS assay for small molecule agonists of the antioxidant response element (ARE) signaling pathway measured by Nrf2-dependant transcriptional activity (AID 720636; active = well fitted curve in the direction sought with a large enough effect in the repeat runs; inconclusive = weak or mixed curves; inactive = no such curve, though single readings can be large; an effect the other way counts as inactive or inconclusive; also: potency is read from the fitted curve at half-maximal effect)
# Outline: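 We exposed ARE-luc HepG2 cells, seeded in assay medium with 1% dialyzed FBS and allowed 6 hr to adhere, to test compounds overnight (16 hr, 37 C) before measuring luciferase with ONE-Glo.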
# [16] = target: Cytochrome P450 3A4 (Homo sapiens) (UniProt P08684); experiment: qHTS Assay for Inhibitors and Substrates of Cytochrome P450 3A4 (AID 884; active = well fitted curve in the direction sought with a large enough effect; inconclusive = small, poorly fitted or top-dose-only effect, or another doubt; inactive = no such curve, though single readings can be large; an effect the other way counts as inactive or inconclusive; also: % is scaled to controls: 0 for no effect and ±100 for the full control effect; nearly all actives have a fitted effect of over 50% in size)
# Chain of UniProt P08684 (P08684 whole entry, looked up): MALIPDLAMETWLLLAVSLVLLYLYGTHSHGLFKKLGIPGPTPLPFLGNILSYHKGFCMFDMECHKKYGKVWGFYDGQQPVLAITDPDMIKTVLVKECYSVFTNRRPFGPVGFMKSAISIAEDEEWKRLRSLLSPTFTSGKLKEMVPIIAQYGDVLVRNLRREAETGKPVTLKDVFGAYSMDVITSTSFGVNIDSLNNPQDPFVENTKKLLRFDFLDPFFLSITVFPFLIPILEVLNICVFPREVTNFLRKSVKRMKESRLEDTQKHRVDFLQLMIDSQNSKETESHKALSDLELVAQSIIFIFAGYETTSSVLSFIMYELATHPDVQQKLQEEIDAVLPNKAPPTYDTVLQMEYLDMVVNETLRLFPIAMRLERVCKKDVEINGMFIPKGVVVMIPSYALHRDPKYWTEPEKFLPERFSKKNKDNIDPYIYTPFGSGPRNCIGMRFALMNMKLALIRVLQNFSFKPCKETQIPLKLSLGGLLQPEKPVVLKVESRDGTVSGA
# Outline: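 Luminescent readout of luciferin produced by CYP3A4 (20 nM) dealkylation of Luciferin-PPXE, 25 uM (its KM). NADPH-driven reaction ran 60 min at RT after 10 min compound preincubation; data scaled to 57 uM ketoconazole as 100% inhibition.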
# [17] = Cell Viability - LYMP2-019 (AID 973; active = well fitted curve in the direction sought with a large enough effect; inconclusive = small, poorly fitted or top-dose-only effect, or another doubt; inactive = no such curve, though single readings can be large; an effect the other way counts as inactive or inconclusive;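 also: cells exposed to compound for 24 h at 37 °C; 0% = DMSO alone and full effect = 92 µM tetraoctylammonium bromide; nearly all actives have a fitted effect of over 55% in size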)
# Outline: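 Cytotoxicity is scored as a concentration-dependent drop in cellular ATP after cells (2500/well) receive compound for 24 hr at 37 C. Tetraoctylammonium bromide serves as positive control.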
# [18] = Cell Viability - LYMP2-016 (AID 984; active = well fitted curve in the direction sought with a large enough effect; inconclusive = small, poorly fitted or top-dose-only effect, or another doubt; inactive = no such curve, though single readings can be large; an effect the other way counts as inactive or inconclusive;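 also: cells exposed to compound for 24 hours at 37 °C; % is scaled to controls: 0 for no effect and ±100 for the full control effect; nearly all actives have a fitted effect of over 55% in size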)
# Outline: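 Cells were seeded at 2500 per well and rested 5 hr before a 24 hr compound exposure at 37 C. Viability was then gauged as cellular ATP by luciferase luminescence, with AC50 values fitted to the Hill equation.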
# [19] = target: Bile acid receptor (Homo sapiens) (UniProt Q96RI1); experiment: qHTS assay for small molecule antagonists of farnesoid X receptor signaling (AID 588526); conditions: HEK293T FXR-UAS-bla, beta-lactamase ratio, antagonist mode; activity change, negative = inhibition: at 76.7 µM (top of the series); also: % is scaled to controls: 0 for no effect and ±100 for the full control effect
# Outline: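 Antagonist mode: titrated compounds tested against chenodeoxycholic acid stimulation (normalized to 50 uM CDCA and DMSO) in GeneBLAzer HEK293T cells for 16 h. Beta-lactamase read by CCF4 fluorescence; IC50 from Hill fits.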
# [20] = target: Voltage-gated inwardly rectifying potassium channel KCNH2 (Homo sapiens) (UniProt Q12809); experiment: qHTS Assay for Small Molecule Inhibitors of the Human hERG Channel Activity (AID 588834; active = well fitted curve in the direction sought with a large enough effect; inconclusive = small, poorly fitted or top-dose-only effect, or another doubt; inactive = no such curve, though single readings can be large; an effect the other way counts as inactive or inconclusive;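 also: top concentration of the series differs between compounds; % is scaled to controls: 0 for no effect and ±100 for the full control effect; lower thallium flux fluorescence means stronger hERG block; nearly all actives have a fitted effect of over 50% in size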); conditions: U2OS BacMam hERG, FluxOR thallium flux fluorescence; at 92.2 µM (top of the series)
# Chain of UniProt Q12809 (Q12809 whole entry, looked up): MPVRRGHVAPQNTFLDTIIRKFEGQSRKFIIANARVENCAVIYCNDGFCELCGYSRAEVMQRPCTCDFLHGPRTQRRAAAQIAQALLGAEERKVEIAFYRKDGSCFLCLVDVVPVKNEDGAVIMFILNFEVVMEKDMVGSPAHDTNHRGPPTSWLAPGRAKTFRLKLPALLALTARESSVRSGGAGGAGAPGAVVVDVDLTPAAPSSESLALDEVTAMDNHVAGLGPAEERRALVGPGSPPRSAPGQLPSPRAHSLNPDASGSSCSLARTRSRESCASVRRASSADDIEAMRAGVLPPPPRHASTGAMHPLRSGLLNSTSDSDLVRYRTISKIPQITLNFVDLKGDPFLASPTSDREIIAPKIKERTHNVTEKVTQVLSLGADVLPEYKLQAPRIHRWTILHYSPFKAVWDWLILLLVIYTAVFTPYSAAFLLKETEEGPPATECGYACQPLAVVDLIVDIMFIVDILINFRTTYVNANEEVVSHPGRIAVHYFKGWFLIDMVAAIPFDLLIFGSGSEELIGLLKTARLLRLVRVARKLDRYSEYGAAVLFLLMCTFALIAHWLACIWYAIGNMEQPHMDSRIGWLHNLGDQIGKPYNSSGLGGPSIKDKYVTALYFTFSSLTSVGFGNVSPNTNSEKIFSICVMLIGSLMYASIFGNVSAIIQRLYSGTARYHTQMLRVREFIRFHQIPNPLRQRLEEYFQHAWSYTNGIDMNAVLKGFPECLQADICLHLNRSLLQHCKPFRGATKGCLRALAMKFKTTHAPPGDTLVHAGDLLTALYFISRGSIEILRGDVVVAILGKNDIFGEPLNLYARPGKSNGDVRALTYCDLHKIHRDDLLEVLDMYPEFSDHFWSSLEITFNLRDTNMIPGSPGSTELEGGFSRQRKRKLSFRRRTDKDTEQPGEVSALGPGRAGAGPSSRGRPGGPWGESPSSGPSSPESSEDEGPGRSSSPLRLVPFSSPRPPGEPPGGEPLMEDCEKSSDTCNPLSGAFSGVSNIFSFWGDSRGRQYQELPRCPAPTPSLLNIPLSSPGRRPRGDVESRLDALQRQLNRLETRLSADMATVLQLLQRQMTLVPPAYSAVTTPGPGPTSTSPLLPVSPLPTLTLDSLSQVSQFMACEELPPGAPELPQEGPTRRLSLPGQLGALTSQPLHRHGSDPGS
# Outline: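 Step 1: BacMam hERG transduction of U2OS, 4 hrs RT. Step 2: overnight 37 °C, plate 2000 cells/well, 4 hr. Step 3: FluxOR load, compound 10 min, stimulate, read fluorescence.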
# [21] = qHTS assay to identify small molecules that stimulate interleukin-8 (IL-8) secretion (AID 651758; active = well fitted activation curve with a large enough effect in the signal ratio; inconclusive = small, poorly fitted or top-dose-only effect, or effect the other way, or a change in a side signal; the % refers to the signal ratio; also: 0% is about no effect); conditions: HTRF ratio (665/615); activation: at 92.2 µM (top of the series)
# Outline: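 Compounds are added to THP-1 cells (2000 per well) and left 16 hrs at 37 C. A labeled anti-IL-8 antibody pair is then added, and IL-8 secretion is measured by time-resolved FRET after 1-3 hrs at room temperature.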
# [22] = qHTS assay for small molecule antagonists of the retinoid-related orphan receptor gamma (ROR-gamma) signaling pathway - cell viability counter screen (AID 720652; active = well fitted curve in the direction sought with a large enough effect in the repeat runs; inconclusive = weak or mixed curves; inactive = no such curve, though single readings can be large; an effect the other way counts as inactive or inconclusive;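 also: potency is read from the fitted curve at half-maximal effect; compound exposure lasted 16 hr before ATP read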)
# Outline: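 Steps: seed CHO cells bearing TET-inducible ROR and ROR response element-luciferase; rest 5 hr at 37 C; add compound, then doxycycline; incubate 16 hr; add CellTiter-Glo and read luminescence as ATP-based viability.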
# Tags tell the direction and shape of the fitted curve or compound fluorescence and quenching.
smiles,measurement,setting,value
CCS(=O)CCSP(=O)(OC)OC (centres undefined),Potency,[1],inactive
same,activation,[2],inactive: 7.09%
same,Potency,[3],"inconclusive [side channel, falling, full curve, poor fit]"
same,"activity, negative = inhibition",[4],inconclusive: 3.51%
same,Potency,[5],inactive
N#CC(CCc1ccc(Cl)cc1)(Cn1cncn1)c1ccccc1 (centres undefined),"activity, negative = inhibition",[1],inconclusive: -70.2%
same,"activity change, negative = inhibition",[6],inconclusive: -38.3%
same,Potency,[3],"inconclusive [side channel, falling, full curve, poor fit]"
same,Potency,[7],inactive
same,Potency,[8],"inconclusive [falling, single point]"
same,"activity change, negative = inhibition",[9],inconclusive: 24.1%
same,activation,[10],inconclusive: -23.5%
same,Potency,[4],"inconclusive [inhibitor, single point]"
same,"activity change, negative = inhibition",[11],inconclusive: 9.74%
same,Potency,[5],"inconclusive [side channel, rising, partial curve, poor fit]"
same,Potency,[12],"inconclusive [cytotoxic, side channel, full curve, poor fit]"
same,Potency,[13],active: 68.6 µM
O=C(Nc1ccccc1)Nc1ccnc(Cl)c1,"activity, negative = inhibition",[1],inconclusive: -56.3%
same,activation,[2],inactive: 10.1%
same,activation,[3],inactive: -3.44%
same,"activity change, negative = inhibition",[7],inconclusive: 15.6%
same,"activity change, negative = inhibition",[9],inconclusive: 27.6%
same,Potency,[4],inactive
same,Potency,[5],"inconclusive [side channel, rising, single point]"
same,max response,[14],inconclusive: -41.8%
same,activation,[13],inconclusive: 9.91%
same,Potency,[15],"inconclusive [activator, full curve, poor fit]"
Cc1cccc(C)c1N,Potency,[16],inactive
same,Potency,[17],inactive
same,Potency,[18],inactive
same,Potency,[1],inactive
same,Potency,[19],inactive
same,"activity change, negative = inhibition",[7],inconclusive: 21.8%
same,Potency,[8],inactive
same,"activity, negative = inhibition",[4],inconclusive: 13.6%
same,activity change % (negative = inhibition),[12],inactive: -2.91%
same,"activity change, negative = inhibition",[20],inactive: -0.197%
same,activation,[21],inconclusive: -6.9%
same,Potency,[22],"inconclusive [cytotoxic, partial curve, poor fit]"
